# Assay results as given in PubChem BioAssay AID686979 (National Center for Advancing Translational Sciences (NCATS), 2013).
# “And” between values parts separate entries of the source, which are not always exact repeats. Equal entries are not always repeated. Out of some 420,000 compounds screened, about 50,000 (12%) were called active. Inconclusive means that the source gave no clear call. Such entries were picked first, then a sample of the others. Calls follow the shape of the dose curve; as a rule, active = well fitted inhibition curve with a large enough effect; inconclusive = small, poorly fitted or top-dose-only effect; inactive = flat fitted curve, though single readings scatter. Potencies of inconclusive entries are left out as doubtful fits. Some structures have more than one record in an assay (separate samples or runs), and their calls can disagree.
# Experiment: qHTS for Inhibitors of human tyrosyl-DNA phosphodiesterase 1 (TDP1): qHTS in cells in presence of CPT; also: nearly all actives have a fitted effect of over 55% in size
# Conditions: chicken DT40 Tdp1-/-;hTDP1 cells + 20 nM CPT, ATP luminescence, 48 h; series mostly up to 46.2 µM
# Summary of the method: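 Chicken DT40 Tdp1-/- cells stably complemented with human TDP1 were seeded at 400 cells/well in medium containing 20 nM camptothecin, exposed to pin-transferred compounds, and grown at 37 °C for at least 48 hr. Viability was read as ATP luminescence.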
# Potency is read from the fitted curve at half-maximal effect; tags tell the direction and shape of the fitted curve.
row,SMILES,Potency
1,O=C(C1COc2ccccc2O1)N1CCN(c2nc3ccccc3s2)CC1 (stereo unspecified),"inconclusive [inhibitor, single point]"
2,COC(=O)c1cccc(C23CC4(C2)[C@H](CN(Cc2cccnc2)[C@@H]4c2ccccc2)C3c2ccc(C(F)(F)F)cc2)c1 (stereo partly specified),active: 16.4 µM
3,Cn1c(C(=O)NCc2cccnc2)cc2sc(Cl)cc21,"inconclusive [inhibitor, partial curve]"
4,Cc1ccc(S(=O)(=O)NC(C)CCc2ccccc2)cc1C(N)=O (stereo unspecified),"inconclusive [inhibitor, single point]"
5,COc1ccccc1N1CCN(C(C)C(=O)Nc2ccc(S(=O)(=O)N3CCOCC3)cc2)CC1 (stereo unspecified),"inconclusive [inhibitor, partial curve]"
6,COc1ccc(OC)c(Nc2nc3nonc3nc2N2CCCC(C)C2)c1 (stereo unspecified),inactive
7,CCCC(O)(CCN(C)C)c1ccc(OC)cc1 (stereo unspecified),inactive
8,C#Cc1ccc([C@@H]2C=C(C(=O)NCc3nc4ccccc4[nH]3)O[C@H](OCC)[C@H]2CCCO)cc1,"inconclusive [inhibitor, single point]"
9,CCOC(=O)c1sc2ccc(S(=O)(=O)N3CCCCC3)cc2c1N,active: 14.1 µM
10,COc1ccc(Cc2nnc(SCC(=O)Nc3c(C)cccc3C)[nH]c2=O)cc1,"inconclusive [inhibitor, single point]"
11,CC(=O)Nc1cccc(NC(=O)C(=O)NCCc2sc(-c3ccccc3)nc2C)c1,active: 1.46 µM
12,Cc1ccc(CCNS(=O)(=O)c2ccc3c(c2)N(C)CCO3)cc1,"inconclusive [inhibitor, single point]"
13,O=C(c1ccc(Cn2cnnn2)cc1)N1CCCC(Nc2ccc(F)c(F)c2)C1 (stereo unspecified),inactive
14,O=C(Nc1ccc(O)cc1C(=O)O)c1ccc(NC(=O)c2ccco2)cc1,"inconclusive [inhibitor, single point]"
15,Cc1cc(C)cc(N(CCC#N)C(=O)CSc2n[nH]c(N)n2)c1,inactive
16,Cc1ccc(CCNC(=O)Cn2nc(-c3ccc(C)cc3)ccc2=O)cc1,"inconclusive [inhibitor, single point]"
17,O=c1nc(NC2CCCC2)ccn1Cc1cccc(Br)c1,"inconclusive [inhibitor, single point]"
18,CC1(C)CC2CC(C)(CN2c2ncnc3ccccc23)C1 (stereo unspecified),active: 8.2 µM
19,CN(Cc1ccccc1O)CC1CCCN(CCc2ccc(Cl)cc2)C1 (stereo unspecified),"inconclusive [inhibitor, single point]"
20,CCOc1ccc(Cl)cc1S(=O)(=O)n1cnc2cc(C)c(C)cc21,"inconclusive [inhibitor, single point]"
21,OCc1c[nH]c2ccccc12,inactive and active: 17.2 µM
22,CCCC[C@H](CC(=O)c1ccccc1)[C@@H](OC(C)=O)C(=O)Oc1c(C(C)C)cccc1C(C)C,active: 13 µM
23,COc1ccc(-n2cc(-c3ccccc3)c3c(NN4CCOCC4)ncnc32)cc1,"inconclusive [inhibitor, single point]"

row,SMILES,Potency
1,COc1ccc(C(=O)N/C(=C\c2ccc(SC)cc2)C(=O)NCCCn2ccnc2)cc1OC,inactive
2,COc1ccc(NC(=O)N2CCN(C(=O)Nc3ccc(OC)cc3)CC2)cc1,"inconclusive [inhibitor, single point]"
3,CCOc1ccc(OCc2ccc(C(=O)O)o2)cc1,inactive
4,COc1ccc(NS(=O)(=O)c2cccc(NC(=O)CCS(=O)(=O)c3ccccc3)c2)cc1,"inconclusive [inhibitor, partial curve]"
5,CSc1cccc(Nc2nc3c(S(=O)(=O)c4ccccc4)nnn3c3ccc(Cl)cc23)c1,"inconclusive [inhibitor, partial curve, poor fit]"
6,CCNc1nc(NC(C)C)nc(N(C#N)CCOc2ccc(Cl)cc2Cl)n1,"inconclusive [inhibitor, single point]"
7,Cc1c(CCOC(=O)C23CC4CC(CC(C4)C2)C3)sc[n+]1CC#N,active: 3.26 µM
8,CC(NC(=O)c1ccc2ccccc2n1)c1ccccc1 (stereo unspecified),"inconclusive [inhibitor, single point]"
9,Cc1noc(C)c1N=Nc1ccccc1C(=O)O,inactive
10,CCOC(=O)c1c(C)[nH]c(C(=O)OCC(=O)Nc2ccc(Cl)cn2)c1C,inactive
11,Cc1cc(C)c(NC(=O)CNC(=O)c2ccccc2OCc2c(C)noc2C)c(C)c1,inactive
12,CCOc1ccc(NC(=S)c2ccc3ccccc3n2)cc1,"inconclusive [inhibitor, single point]"
13,CCC(CO)Oc1cc(NCc2ccccn2)c2ncn(C(C)C)c2c1 (stereo unspecified),inactive
14,O=C(c1ccc2c(c1)N(Cc1ccc(F)cc1)C(=O)c1ccccc1S2=O)N1CCC(Cc2ccccc2)CC1 (stereo unspecified),active: 16.4 µM
15,O=[N+]([O-])c1ccc(N/N=C\c2cccn2-c2ccccc2)nc1,active: 11.6 µM
16,CCCCNCCOCCOc1ccc(C)cc1Br,active: 16.4 µM
17,Cc1onc(-c2ccccc2)c1C(=O)OCCOc1ccc([N+](=O)[O-])cc1[N+](=O)[O-],"inconclusive [inhibitor, single point]"
18,Cc1c(C(=O)N(Cc2nccn2C)C(C)C)oc2c(F)cccc12,"inconclusive [inhibitor, partial curve]"
19,COc1ccccc1NC(=O)c1cccc(S(=O)(=O)N2CCCCCC2)c1,"inconclusive [inhibitor, single point]"
20,CCc1ccc(CNC(=O)c2ccc(NC(=O)N3CCCCc4ccccc43)cc2)cc1,active: 20.6 µM
21,O=C(c1cccc(Cl)c1)N1CCC(=O)N([C@H](COCc2ccccc2)Cc2ccccc2)CC1,"inconclusive [inhibitor, single point]"
22,COc1ccc(NC(C)C(=O)N/N=C/c2c(O)ccc3ccccc23)cc1 (stereo unspecified),active: 4.61 µM
23,O=C(N/N=C/c1ccccc1O)C1(O)c2ccccc2-c2ccccc21,active: 8.2 µM
